Measurements: EP3057951B1, “METHYLENE LINKED QUINOLINYL MODULATORS OF ROR-GAMMA-T” (Janssen Pharmaceutica NV, priority 2013, dated 2015)

What follows are compounds tested on IL-17 production by CD4 T cells (assay: Human Th17 Assay (IL-17 production under Th17 differentiation conditions)). Conditions: Homo sapiens, CD4+ T, 72 h, read-out: Human Th17 Assay, IC50, IL-17 production, CD4 T cells, 3 days.

Compared with `COc1nc2ccc(C(O)(c3ccccn3)c3cncn3C)cc2c(Cl)c1Cc1ccc(-n2cccn2)cc1` (single isomer, unassigned) [Example 64c, (3-(4-(1H-Pyrazol-1-yl)benzyl)-4-chloro-2-methoxyquinolin-6-yl)(1-methyl-1H-imidazol-5-yl)(pyridin-2-yl)methanol], `COc1c(Cc2ccccc2)c(C(F)(F)F)nc2ccc(C(O)(c3ccccn3)c3cncn3C)cc12` (single isomer, unassigned) [Example 98c, (3-Benzyl-4-methoxy-2-(trifluoromethyl)quinolin-6-yl)(1-methyl-1H-imidazol-5-yl)(pyridin-2-yl)methanol] is 14-fold higher in IC50: 49 nM for the first, 690 nM for the second.

Going from `COc1nc2ccc(C(O)(c3cnnn3C)c3cnc(C)n3C)cc2c(Cl)c1Cc1ccc(F)cc1` (single isomer, unassigned) [Example 65c] to `COc1nc2ccc(C(O)(c3cncn3C)c3cnnn3C)cc2c(Cl)c1Cc1ccc(C(F)(F)F)cc1` (single isomer, unassigned) [Example 89b, (4-Chloro-2-methoxy-3-(4-(trifluoromethyl)benzyl)quinolin-6-yl)(1-methyl-1H-1,2,3-triazol-5-yl)(1-methyl-1H-imidazol-5-yl)methanol], the IC50 falls from 7 nM to 0.13 nM (54-fold).

Compared with `COc1nc2ccc(C(N)(c3ccc(C(F)(F)F)nc3)c3cncn3C)cc2c(Cl)c1Cc1cc2ccccc2s1` (single isomer, unassigned) [Example 71b, (3-(Benzo[b]thiophen-2-ylmethyl)-4-chloro-2-methoxyquinolin-6-yl)(1-methyl-1H-imidazol-5-yl)(6-(trifluoromethyl)pyridin-3-yl)methanamine], `COc1nc2ccc(C(O)(c3ccc(C)nc3C)c3cncn3C)cc2c(Cl)c1Cc1ccc(C(F)(F)F)cc1` (single isomer, unassigned) [Example 88c, (4-Chloro-2-methoxy-3-(4-(trifluoromethyl)benzyl)quinolin-6-yl)(2,6-dimethylpyridin-3-yl)(1-methyl-1H-imidazol-5-yl)methanol] is 27-fold lower in IC50: 190 nM for the first, 7.1 nM for the second.

Compared with `COc1nc2ccc(C(O)(c3cnnn3C)C3CCN(C(C)=O)CC3)cc2c(Cl)c1Cc1ccc(C(F)(F)F)cc1` (single isomer, unassigned) [Example 74b, 1-(4-((4-Chloro-2-methoxy-3-(4-(trifluoromethyl)benzyl)quinolin-6-yl)(hydroxy)(1-methyl-1H-1,2,3-triazol-5-yl)methyl)piperidin-1-yl)ethanone], `COc1nc2ccc(C(O)(c3cnnn3C)C3CN(C)C3)cc2c(Cl)c1Cc1ccc(C(F)(F)F)cc1` (single isomer, unassigned) [Example 90c, (4-Chloro-2-methoxy-3-(4-(trifluoromethyl)benzyl)quinolin-6-yl)(1-methyl-1H-1,2,3-triazol-5-yl)(1-methylazetidin-3-yl)methanol] is 2.7-fold higher in IC50: 25 nM for the first, 68 nM for the second.

Going from `CC(=O)N1CCC(C(O)(c2ccc(C(F)(F)F)nc2)c2cc(C)c3nc(C#N)c(Cc4ccc(-n5cccn5)cc4)c(C#N)c3c2)CC1` (single isomer, unassigned) [Example 79c, 3-(4-(1H-Pyrazol-1-yl)benzyl)-6-((1-acetylpiperidin-4-yl)(hydroxy)(6(trifluoromethyl)pyridin-3-yl)methyl)-8-methylquinoline-2,4-dicarbonitrile] to `CC(=O)N1CCC(C(O)(c2cc(C)c3nc(C#N)c(Cc4ccc(-n5cccn5)cc4)c(C#N)c3c2)c2cncn2C)CC1` (single isomer, unassigned) [Example 81b, 3-(4-(1H-Pyrazol-1-yl)benzyl)-6-((1-acetylpiperidin-4-yl)(hydroxy)(1-methyl-1H-imidazol-5-yl)methyl)-8-methylquinoline-2,4-dicarbonitrile], the IC50 rises from 420 nM to 2600 nM (6.2-fold). The first is the more potent here.

First: Cc1cc(C(O)(c2ccnc(C(F)(F)F)c2)c2cncn2C)cc2c(C#N)c(Cc3ccc(-n4cccn4)cc3)c(C#N)nc12 (single isomer, unassigned) [Example 83b, 3-(4-(1H-Pyrazol-1-yl)benzyl)-6-(hydroxy(1-methyl-1H-imidazol-5-yl)(2-(trifluoromethyl)pyridin-4-yl)methyl)-8-methylquinoline-2,4-dicarbonitrile]
Second: Cn1cc(-c2nc3ccc(C(O)(c4ccc(C(F)(F)F)nc4)c4cncn4C)cc3c(C#N)c2Cc2ccccc2)cn1 (single isomer, unassigned) [Example 112b, 3-Benzyl-6-(hydroxy(1-methyl-1H-imidazol-5-yl)(6-(trifluoromethyl)pyridin-3-yl)methyl)-2-(1-methyl-1H-pyrazol-4-yl)quinoline-4-carbonitrile]
The IC50 of the first is 930-fold lower: 3 nM for the first, 2800 nM for the second. The first is the more potent here.

`COc1nc2ccc(C(O)(c3cnc(C)n3C)C3CCOCC3)cc2c(Cl)c1Cc1ccc(C(F)(F)F)cc1` (single isomer, unassigned) [Example 86c, (4-Chloro-2-methoxy-3-(4-(trifluoromethyl)benzyl)quinolin-6-yl)(1,2-dimethyl-1H-imidazol-5-yl)(tetrahydro-2H-pyran-4-yl)methanol] and `COc1nc2ccc(C(O)(c3sc(C)nc3C)c3cnnn3C)cc2cc1Cc1ccc(C(F)(F)F)cc1` (single isomer, unassigned) [Example 92c, (2,4-Dimethylthiazol-5-yl)(2-methoxy-3-(4-(trifluoromethyl)benzyl)quinolin-6-yl)(1-methyl-1H-1,2,3-triazol-5-yl)methanol] are within 1.5-fold of each other in IC50: 44 nM for the first, 30 nM for the second.

Going from `Cn1cncc1C(O)(c1ccc2nc(C(F)(F)F)c(Cc3ccccc3)c(C#N)c2c1)c1ccccn1` (single isomer, unassigned) [Example 99c, 3-Benzyl-6-(hydroxy(1-methyl-1H-imidazol-5-yl)(pyridin-2-yl)methyl)-2-(trifluoromethyl)quinoline-4-carbonitrile] to `COc1c(Cc2ccccc2)c(C(F)(F)F)nc2ccc(C(O)(c3ccc(Cl)cc3)c3cncn3C)cc12` (single isomer, unassigned) [Example 101b], the IC50 rises from 18 nM to 30 nM (1.7-fold).

Same assay, conditions: read-out: Human Th17 Assay, IC50; IL-17 production, CD4 T cells, 3 days

Compared with `COc1nc2ccc(C(O)(c3ccccn3)c3cncn3C)cc2c(Cl)c1Cc1cc2ccccc2s1` (single isomer, unassigned) [Example 59c, (3-(Benzo[b]thiophen-2-ylmethyl)-4-chloro-2-methoxyquinolin-6-yl)(1-methyl-1H-imidazol-5-yl)(pyridin-2-yl)methanol], `COc1nc2ccc(C(O)(c3cncn3C)c3cnnn3C)cc2c(Cl)c1Cc1ccc(C(F)(F)F)cc1` (single isomer, unassigned) [Example 89c, (4-Chloro-2-methoxy-3-(4-(trifluoromethyl)benzyl)quinolin-6-yl)(1-methyl-1H-1,2,3-triazol-5-yl)(1-methyl-1H-imidazol-5-yl)methanol] is lower in IC50: 1100 nM for the first, less than 0.1 nM for the second.

Compared with `COc1nc2ccc(C(O)(c3ccccc3)C3CCN(C(C)=O)CC3)cc2c(Cl)c1Cc1ccc(C(F)(F)F)cc1` (single isomer, unassigned) [Example 69b, 1-(4-((4-Chloro-2-methoxy-3-(4-(trifluoromethyl)benzyl)quinolin-6-yl)(hydroxy)(phenyl)methyl)piperidin-1-yl)ethanone], `COc1nc2ccc(C(O)(c3cnnn3C)C3CCN(C(C)=O)CC3)cc2c(Cl)c1Cc1ccc(C(F)(F)F)cc1` (single isomer, unassigned) [Example 74c, 1-(4-((4-Chloro-2-methoxy-3-(4-(trifluoromethyl)benzyl)quinolin-6-yl)(hydroxy)(1-methyl-1H-1,2,3-triazol-5-yl)methyl)piperidin-1-yl)ethanone] is 6-fold higher in IC50: 6 nM for the first, 36 nM for the second.

Going from `COc1nc2ccc(C(O)(c3ccccc3)C3CCN(C(C)=O)CC3)cc2c(Cl)c1Cc1ccc(C(F)(F)F)cc1` (single isomer, unassigned) [Example 69c, 1-(4-((4-Chloro-2-methoxy-3-(4-(trifluoromethyl)benzyl)quinolin-6-yl)(hydroxy)(phenyl)methyl)piperidin-1-yl)ethanone] to `CC(=O)N1CCC(C(O)(c2ccc3nc(C(F)(F)F)c(Cc4ccccc4)c(Cl)c3c2)c2cncn2C)CC1` (single isomer, unassigned) [Example 115b, 1-(4-((3-Benzyl-4-chloro-2-(trifluoromethyl)quinolin-6-yl)(hydroxy)(1-methyl-1H-imidazol-5-yl)methyl)piperidin-1-yl)ethanone•TFA], the IC50 rises from 84 nM to 2600 nM (31-fold).

Compared with `COc1nc2ccc(C(O)(c3cc(C)nc(C)c3)c3cnnn3C)cc2c(Cl)c1Cc1ccc(C(F)(F)F)cc1` (single isomer, unassigned) [Example 84b, (4-Chloro-2-methoxy-3-(4-(trifluoromethyl)benzyl)quinolin-6-yl)(2,6-dimethylpyridin-4-yl)(1-methyl-1H-1,2,3-triazol-5-yl)methanol], `COc1nc2ccc(C(O)(c3cnnn3C)C3CCOCC3)cc2c(Cl)c1Cc1ccc(C(F)(F)F)cc1` (single isomer, unassigned) [Example 85b, (4-Chloro-2-methoxy-3-(4-(trifluoromethyl)benzyl)quinolin-6-yl)(1-methyl-1H-1,2,3-triazol-5-yl)(tetrahydro-2H-pyran-4-yl)methanol] is 73-fold lower in IC50: 220 nM for the first, 3 nM for the second.

Compared with `COc1nc2ccc(C(O)(c3cc(C)nc(C)c3)c3cnnn3C)cc2c(Cl)c1Cc1ccc(C(F)(F)F)cc1` (single isomer, unassigned) [Example 84c, (4-Chloro-2-methoxy-3-(4-(trifluoromethyl)benzyl)quinolin-6-yl)(2,6-dimethylpyridin-4-yl)(1-methyl-1H-1,2,3-triazol-5-yl)methanol], `COc1nc2ccc(C(O)(c3cnnn3C)C3CCOCC3)cc2c(Cl)c1Cc1ccc(C(F)(F)F)cc1` (single isomer, unassigned) [Example 85c, (4-Chloro-2-methoxy-3-(4-(trifluoromethyl)benzyl)quinolin-6-yl)(1-methyl-1H-1,2,3-triazol-5-yl)(tetrahydro-2H-pyran-4-yl)methanol] is 8.8-fold higher in IC50: 1.7 nM for the first, 15 nM for the second. The first is the more potent here.

For `CC(=O)N1CCC(C(O)(c2ccc3nc(C(F)(F)F)c(Cc4ccccc4)c(Cl)c3c2)c2cncn2C)CC1` (single isomer, unassigned) [Example 115c, 1-(4-((3-Benzyl-4-chloro-2-(trifluoromethyl)quinolin-6-yl)(hydroxy)(1-methyl-1H-imidazol-5-yl)methyl)piperidin-1-yl)ethanone•TFA], the IC50 was roughly 200 nM.

Where a name gives a salt, the structure may show the parent alone.
